Measurements published in PubChem BioAssay AID463173 (ICCB-Longwood Screening Facility, Harvard Medical School, 2010).
Among all 52,000 compounds or so, about 4,300 (8.3%) were called active. Rule as the data show it: active = survival mostly below about 52% (no sharp cut-off); inactive = mostly above about 56%. Some of the results follow.

system: DeltatarO mutant; test: S. aureus survival, RN4220 and DeltatarO strains – OD600, teichoic acid synthesis inhibitors, primary screen (AID 463173); conditions: S. aureus RN4220 wild type/DeltatarO growth, OD600, 18 h, hits give low values, screened at 18.75 µg/mL (by protocol)

Row | SMILES | survival
1 | COc1cc(Cl)c(C)cc1NC(=O)c1c(C)oc2nc(C)nc(N3CCCC3)c12 | inactive: 99%
2 | Cc1noc(-c2ccc(N3CCCCC3C)c([N+](=O)[O-])c2)n1 (stereo unspecified) | inactive: 108%
3 | CCc1nnc(NC(=O)CSc2nccn2Cc2ccccc2)s1 | inactive: 69%
4 | O=C(Cn1c(-c2cccs2)cc2ccccc21)NCCCN1CCN(c2cccc(Cl)c2)CC1 | inactive: 67%
5 | O=C1CCCc2cc(S(=O)(=O)N3CCCC(C(=O)NCc4ccccc4Cl)C3)ccc2N1 (stereo unspecified) | inactive: 92%
6 | NCc1ccc2[nH]c(=O)[nH]c2c1 | inactive: 93%
7 | O=C(NCc1ccccc1)C(c1ccccn1)N(C(=O)c1csnn1)C1CC1 (stereo unspecified) | inactive: 83%
8 | COc1cccc(CNC(=O)C(Cc2ccccc2)NS(=O)(=O)c2ccc3c(c2)CCN3C(C)=O)c1 (stereo unspecified) | inactive: 70%
9 | CCOc1ccccc1CNC(=O)c1ccc2c(c1)N(CC)CCS2 | inactive: 50%
10 | COc1cc(C(=O)Nc2sc3c(c2C#N)CCCC3)c(Br)c(OC)c1OC | inactive: 75%
11 | Cc1ccc(NC(=O)CCc2nc(-c3ccccc3F)no2)c(C)c1 | inactive: 93%
12 | Nc1nnc(CCS(=O)(=O)c2ccc3ccccc3c2)s1 | inactive: 78%
13 | CN1CCCCc2c1nc1ccccc1c2N | inactive: 93%
14 | CS(=O)(=O)c1ncc(Cl)c(C(=O)N(Cc2ccc(Cl)cc2)Cc2ccco2)n1 | active: 4%
15 | Cc1cccc(OCC(=O)Nc2nnc(S(=O)(=O)N3CCCCCC3)s2)c1 | active: 48%
16 | Cc1ccc(-n2nc(C(=O)NC(C)C)c(=O)n(C)c2=O)cc1 | inactive: 78%
17 | Cc1ccc(-n2c(=O)c3oc4ccccc4c3n(Cc3ccccc3)c2=O)cc1C | inactive: 57%
18 | O=C(/C=C/c1ccc(F)cc1)NC(=S)NCc1ccco1 | inactive: 68%
19 | CC1CCCN(C(=O)Cc2cccc3ccccc23)C1 (stereo unspecified) | inactive: 98%
20 | CCOC(=O)c1ccc(N2C(=O)CC(N3CCN(c4ccc(O)cc4)CC3)C2=O)cc1 (stereo unspecified) | inactive: 96%
21 | O=C(Nc1ccc(-c2nnn(CC(=O)N3CCN(C(=O)c4ccco4)CC3)n2)cc1)c1ccccc1F | inactive: 74%
22 | CCC(=O)N1CCc2cc(CNS(=O)(=O)c3ccccc3F)ccc21 | inactive: 76%
23 | Cc1ccc(NC(=O)C(Cc2ccccc2)NS(=O)(=O)c2ccc3c(c2)oc(=O)n3C)cc1C (stereo unspecified) | inactive: 72%

Row | SMILES | survival
24 | CCc1cccc2c(C=C(C#N)C#N)cn(CC(=O)N3CCCCCC3)c12 | inactive: 77%
25 | CC(C)(C)C(=O)Cn1c(=O)n(CCCCCC(=O)NCc2ccccc2Cl)c(=O)c2sccc21 | inactive: 56%
26 | COc1cc(OC)cc(-c2nc3nc(C)c(CCC(=O)Nc4ccccc4)c(C)n3n2)c1 | inactive: 73%
27 | O=C(Cc1ccccc1)Nc1nc2ccccc2s1 | inactive: 105%
28 | CC(=O)c1ccc(N2CCN(C(=O)Nc3cn(CC(C)C)c(=O)c4ccccc34)CC2)cc1 | inactive: 80%
29 | CCOC(=O)c1c(C)[nH]c(C)c1S(=O)(=O)NCC(=O)Nc1cc(Cl)ccc1OC | active: -4%
30 | CC(=O)c1ccc(NC(=O)COc2ccccc2-c2nc(C(C)C)no2)cc1 | active: 55%
31 | CCOC(=O)C1CCN(S(=O)(=O)c2cc(-c3cc(C)no3)ccc2OC)CC1 | inactive: 82%
32 | CCC(=O)Nc1ccc(-c2nc3ccc(NC(=O)CC)cc3[nH]2)cc1 | inactive: 66%
33 | N#C/C(=C\c1ccc(N2CCCCC2)o1)C(N)=O | inactive: 80%
34 | O=C(COc1ccccc1)Nc1nnc2n1CCS2 | inactive: 86%
35 | COc1ccc(C)cc1Nc1c2c(nc3ccccc13)CCC2 | inactive: 85%
36 | COc1ccc(CCNC(=O)c2nc(SCc3ccc(F)cc3)ncc2Cl)cc1OC | active: 46%
37 | CCOC(=O)N1CCC(NC(=O)c2ccc3c(c2)N(Cc2ccc(F)cc2)C(=O)c2ccccc2S3=O)CC1 (stereo unspecified) | inactive: 58%
38 | Cc1ccccc1OCC(=O)Nc1ccc2[nH]c(=O)sc2c1 | inactive: 133%
39 | CCc1ccc(C2CC(=O)c3c([nH]c(C(=O)OC4CCCCCC4)c3C)C2)cc1 (stereo unspecified) | inactive: 130%
40 | COc1ccc(NC(=O)CN2CCN(C3CCCCC3)C(=O)C2=O)cc1 | inactive: 102%
41 | CCCCCCC(=O)Nc1cc2nc3c(nc2cc1C)c(=O)n(C)c(=O)n3C | inactive: 159%
42 | Cc1ccc(C)c(NC(=O)CSc2nnc(NC(=O)Nc3ccccc3)s2)c1 | inactive: 87%
43 | O=C(CSc1nc(-c2ccco2)nc2cc(=O)[nH]n12)Nc1ccc(F)cc1 | inactive: 70%
44 | COc1ccc(C2CC(=O)Nc3cc4c(cc32)OCO4)c(OC)c1 (stereo unspecified) | inactive: 80%
45 | CCN1CCN(Cc2nc3cc(NC(=O)c4cccc([N+](=O)[O-])c4)ccc3n2CC)CC1 | inactive: 105%
46 | O=C(C1=C(O)C(=O)N(Cc2ccccc2)C1c1ccco1)c1ccco1 (stereo unspecified) | inactive: 58%

Row | SMILES | survival
47 | CC(=O)Nc1cccc(NC(=O)CSc2cn(CC(=O)N3CCCC3)c3ccccc23)c1 | inactive: 58%
48 | Cc1ccc(CCNC(=O)c2oc(=O)c3ccccc3c2-c2ccc(C)cc2)cc1 | active: 28%
49 | CC1CCN(S(=O)(=O)c2ccc3c(ccc(=O)n3CC(=O)NCc3ccccc3)c2)CC1 | inactive: 49%
50 | CCCS(=O)(=O)c1nc(S(=O)(=O)c2ccc(C)cc2)c(NCC(C)C)s1 | inactive: 73%
51 | CCOC(=O)c1c(-c2ccc(Br)cc2)csc1NC(=O)c1ccc(C(C)(C)C)cc1 | inactive: 52%
52 | COc1ccc(CNC(=O)C2CCCN(C(=O)c3cnn(-c4ccc(F)cc4)c3-n3cccc3)C2)cc1 (stereo unspecified) | inactive: 86%
53 | Cc1ccc(CNC(=O)c2cc(=O)c3cc(C)c(C)cc3o2)cc1 | inactive: 77%
54 | CCOc1ccc(CC(=O)NCCc2sc(-c3cccc(F)c3)nc2C)cc1 | inactive: 85%
55 | O=C(NCCS(=O)(=O)N1CCN(c2ccc(F)cc2)CC1)c1ccccc1Br | inactive: 98%
56 | Cc1nc2c(-c3ccccc3)c(C)[nH]n2c(=O)c1Cc1ccc(Br)cc1 | active: 7%
57 | COc1ccc(NC(=O)c2cc(=O)c3cc(C)cc(C)c3o2)cc1 | inactive: 66%
58 | CCC(=O)Nc1ccc(C)cc1-c1nc2ccccc2n(CC(=O)c2ccc(C)cc2)c1=O | inactive: 68%
59 | CC(C)(C)OC(=O)N1CCC(c2c(C(=O)NCc3ccco3)cnn2-c2ccc(F)cc2F)CC1 | inactive: 83%
60 | Cc1noc2ncnc(N3CCCC(C(=O)Nc4cc(F)ccc4F)C3)c12 (stereo unspecified) | inactive: 74%
61 | CCCCNC(=O)Cn1c(=O)cc(C)c2c(C)nn(-c3cccc(Cl)c3C)c21 | inactive: 74%
62 | CCc1ccc(-n2c(=O)c3c(C)c(C(=O)N(C)C)sc3n(CC(=O)Nc3cc(Cl)ccc3C)c2=O)cc1 | inactive: 131%
63 | CCOC(=O)c1c(C)c(C(=O)NCc2ccc(Cl)cc2)c(C)n1C | inactive: 79%
64 | COc1ccccc1NC(=O)C1=C(C)Nc2nc(-c3ccco3)nn2C1c1cccc(C)c1 (stereo unspecified) | inactive: 70%
65 | COc1ccccc1CNS(=O)(=O)c1ccc2c(c1)CC(C)N2C(=O)C1CCC1 (stereo unspecified) | inactive: 104%
66 | COc1ccc(N2CCN(C(=O)C(C)n3c(=O)cc(C(F)(F)F)c4c(C)nn(C)c43)CC2)cc1 (stereo unspecified) | inactive: 97%
67 | COc1ccc(Cl)cc1NC(=O)NCCc1c(C)nn(C)c1C | active: -1%
68 | Cc1n(O)c2c3c(c4c(c2[n+]1[O-])n(O)c(C)[n+]4[O-])[n+]([O-])c(C)n3O | inactive: 101%
69 | CCc1cccc(C)c1NC(=O)c1ccc2c(c1)CCN2S(=O)(=O)CC | inactive: 79%

Row | SMILES | survival
70 | CC(=O)Nc1ccc(NC(=O)c2cc(-c3cccs3)on2)cc1 | inactive: 78%
71 | O=C(CSC1=Nc2ccccc2N=C(c2ccc(F)cc2)C1)Nc1ccc(Cl)cc1 | inactive: 88%
72 | Cc1ccc(Sc2c(C)nn(C(=O)c3ccc(Br)cc3)c2C)cc1 | active: 16%
73 | COc1ccc(Nc2ncnc3onc(C)c23)c(OC)c1 | inactive: 78%
74 | COc1ccc(S(=O)(=O)NCCc2sc3nc(-c4ccc(C)cc4)nn3c2C)cc1F | inactive: 72%
75 | O=C(CSc1nc2ccccc2nc1Cc1ccccc1)Nc1ccccc1C(F)(F)F | inactive: 91%
76 | CCOc1ccc(-n2ccnc2SCC(=O)Nc2ccc3c(c2)OCO3)cc1 | inactive: 81%
77 | CCOc1ccc(CNC(=O)c2cnc3sc(N(CC)CC)nn3c2=O)cc1 | inactive: 83%
78 | O=C(NCCS(=O)(=O)N1CCN(c2ccccc2F)CC1)C1CC(=O)N(c2ccccc2)C1 (stereo unspecified) | inactive: 90%
79 | COc1cccc(NC(=O)c2c(N3CCCC3=O)c3cc(C)ccc3n2C)c1 | inactive: 84%
80 | CN1CCCc2cc(CN)ccc21 | inactive: 86%
81 | Cc1ccc(NC(=O)C2CCCN2S(=O)(=O)c2ccc3c(c2)C(C)(C)C(=O)N3C)cc1 (stereo unspecified) | inactive: 51%
82 | CCOc1ccc(NC(=O)c2cc(C)nc3c2c(C)nn3-c2cccc(F)c2)cc1 | inactive: 89%
83 | Cn1cnc(S(=O)(=O)N2CCCC(C(=O)NCc3ccccc3)C2)c1 (stereo unspecified) | inactive: 101%
84 | Cc1cccc(N2CCN(C(=O)Cn3ncc4c([nH]c5ccccc54)c3=O)CC2C)c1 (stereo unspecified) | inactive: 93%
85 | COc1ccc(-c2cc(C)no2)cc1S(=O)(=O)NC1CCC(C)CC1 (stereo unspecified) | inactive: 94%
86 | CC1(C(=O)NC2CCCCC2)Cc2ccccc2C(=O)N1Cc1ccc(F)cc1 (stereo unspecified) | inactive: 120%
87 | Cc1ccc(S(=O)(=O)c2nc(-c3ccco3)oc2SCc2ccc(F)cc2)cc1 | inactive: 66%
88 | COc1ccc(C(=O)Nc2c(C(=O)c3ccc(F)cc3)oc3ccccc23)cc1 | inactive: 103%
89 | CCc1cccc(C)c1NC(=O)C1CCN(S(=O)(=O)c2cccc3nonc23)CC1 | inactive: 103%
90 | O=C1CC(c2ccc(Cl)cc2)c2cc3c(cc2N1)OCCO3 (stereo unspecified) | inactive: 50%
91 | CC(=O)Nc1nnc(CC(C)(C)C)s1 | inactive: 99%
